According to the supplement of paper PMC11417369:
± gives the standard deviation of the averaged measurements. The list shows a part of the results.

What follows are sequences tested on PfAP2-LT AP2 domain (GST-tagged) (assay: gcPBM binding intensity (ln(normalized median fluorescence intensity)); higher = stronger DNA binding).
Summary of the method: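 Probes on an Agilent 4 × 180k array were primer-extended, double-stranded and 36 bp long, taken from intergenic genomic regions, with negative controls added. GST-tagged P. falciparum DNA-binding domains from E. coli, about 25 μg on average, were applied to the array for 1 h in 1× PBS containing 1% milk, 0.2 mg/ml BSA, 0.5% salmon testes DNA and 0.03% Triton X-100. Binding intensity, obtained after Alexa488 anti-GST antibody detection and a 488 nm scan, is the highest Masliner-normalised natural-log median intensity across replicate spots of either probe orientation.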

Sequence | gcPBM binding intensity (ln)
ACAGATGATCAAAATTGTACAGAGTTATATTATATT [XGTACX_site4642] | 8.8 ± 0.52
TAAGTAATAGTTTGTGCACACTCAAGTATATCATAT [CACACA_site4035] | 9.21 ± 0.46
TTTATTTTTCATTGGGGTACACAAGTTTATTTTATT [XGTACX_site4263] | 8.95 ± 0.35
CCATAATTATATGCCAGTACATATTTGTAACAAAAA [XGTACX_site851] | 8.72 ± 0.37
CTTTTAAAAAAATTCATGCACACGAAATAAAAAGCA [CACACA_site929] | 8.93 ± 0.47
TATTATTCCATGTGAAGTACAGAAATATAAATAAAT [XGTACX_site5106] | 8.64 ± 0.39
CAAAATATTTTTATAACACACATATATAGAATGTGC [CACACA_site1145] | 8.77 ± 0.37
TATATATATATAACAACACACACAGATCATAAAACT [CACACA_site8670] | 9.64 ± 0.28
TATTTTTTTTCGTAATGTACATAAAAAATGCAAAAA [XGTACX_site8491] | 8.27 ± 0.36
ATTATATAATTTAATCGTACACAAATATTTGTTAGT [XGTACX_site5913] | 8.74 ± 0.44
TTTTACTATACTTATGCACACAAGATAAATACATAT [CACACA_site5619] | 9.05 ± 0.46
ATACCTCAAATTGATACACACAAAAAAAGTAAATTA [CACACA_site3134] | 9.06 ± 0.35
CTATTTTAATATTTTACACACCATGTAAAATATATA [CACACA_site5732] | 8.67 ± 0.35
TATCATCTTAATATCGTGCACATTTATAGAACGAAA [GTGCAC_site9992] | 8.56 ± 0.34
TACAATATAATTTAATGTACATGTGAATATATATAT [XGTACX_site4675] | 8.74 ± 0.42
TATTAAAAGGTGAGTACACACATATCTGAGTATATA [CACACA_site5192] | 8.96 ± 0.5
TAATATACTATAAATACACACAAGTGTACATACTTC [CACACA_site983] | 9.06 ± 0.4
TTAAAAAGAGGTGACACACACATATAAATCTAAATC [CACACA_site3738] | 9.34 ± 0.56
TTGTGCTAAACAAAAAAAAATATATATAAAAAAATA [XGTACX_negctrl_site388] | 8.37 ± 0.62
ATAAAAATATATGAAACACACAGTTTCTATAAGAAA [CACACA_site4156] | 8.68 ± 0.47
ATATGTATATAATAAGAACACACATATATTTAATTT [CACACA_site8961] | 9.12 ± 0.35
GTTATTAAATAATTCACACACATATATAAATAAATA [CACACA_site7129] | 9.03 ± 0.38

Sequence | gcPBM binding intensity (ln)
ATATCTCAACATATCACACATATATATATATAATAT [CACACA_site5018] | 9.16 ± 0.2
AATAAATATAAATAAATAAATATATATATATATTTG [CACACA_negctrl_site1486] | 8.56 ± 0.4
ATATGTATATTTTTGATGTGCTTTTATTTGGTTATT [CACACA_negctrl_site626] | 9.05 ± 0.5
CATCCACATAGATGTACACACATATATATATATATA [CACACA_site5616] | 9.945 ± 0.078
CTTCATAAAAATTGCACACATATAATAATGTACATA [CACACA_site2212] | 8.96 ± 0.36
ATTTTTTTATAATCAACCCATTTCCTACATTTTTAT [CACACA_negctrl_site1237] | 8.98 ± 0.67
AAAATTAATTTATTTACACACAATATTAAAATATTT [CACACA_site7512] | 8.59 ± 0.45
TTACATATTCATAAAAGTACATAATTATAAAAGGTA [XGTACX_site906] | 8.75 ± 0.41
TTTTATACATATTTTACACACTAAAATATACAGATA [CACACA_site4333] | 8.63 ± 0.45
TATAATATATAAAAATGTACACATAAATATAAGTAG [XGTACX_site665] | 8.89 ± 0.42
GTATATATGTTTTATACACACATTAAAGGAAATATA [CACACA_site984] | 8.94 ± 0.4
CACAAACAGACAAACACACACACACGGACATACATA [CACACA_site6350] | 10.1 ± 0.11
ACTAAATAAATAAATATAATATATAAATATGTATGT [TGCATGCA_negctrl_site583] | 8.78 ± 0.43
ACATGCAAGAAGAAATGTACTTAACATCTATATAGA [XGTACX_site7338] | 8.83 ± 0.48
AAAAAAAAAATTAAATGTACATATATAATATATATA [XGTACX_site7245] | 8.6 ± 0.47
GCCATAAAGATATATACACACATAAAAAAAAGTTAT [CACACA_site6674] | 9.14 ± 0.45
ATTATTATAGATAAAACACACAATTTTGTTTTCACA [CACACA_site7792] | 8.73 ± 0.4
TTAACAAAGAAACACACACACACACCCAAAAAAAAA [CACACA_site516] | 10.2 ± 0.11
AAACAATTATTATATTGTACATATATTACATTATTA [XGTACX_site1089] | 8.69 ± 0.45
TTATATTTTATTATGTGTACGTATATAATATAATAT [XGTACX_site6230] | 8.72 ± 0.4
AATCAAAAAGGAACCATAATATTACAACTATATATA [CACACA_negctrl_site381] | 8.74 ± 0.45
TAAAACTTAATGTTTTGTACATATTCTTCTTTATTT [XGTACX_site4271] | 8.6 ± 0.57

Sequence | gcPBM binding intensity (ln)
CATTTTTTGCTTTCAACACACATACAATATATATAA [CACACA_site6127] | 8.81 ± 0.4
AAGGATCACGCACAAACACACATATTTATATTTATA [CACACA_site6405] | 9.14 ± 0.45
CTTTATTTTTTATACACACACAATATGTATATATAT [CACACA_site3550] | 9.17 ± 0.33
TAAGGATATATATATTCACACACACCGGGAAATATA [CACACA_site8020] | 9.55 ± 0.34
AAACAAATATATATATGTACTTATAAAAAAAAAAAT [XGTACX_site2211] | 8.75 ± 0.51
TTTTTATTTTTTGAAACACACACAAAAAAAATGATA [CACACA_site8564] | 8.68 ± 0.35
TTTTTGTATTCTTCTTCTTCCAGACTACATTATGTC [XGTACX_negctrl_site235] | 8.89 ± 0.42
ATATATTTAAAATTGACACACATTTAATGACATTTT [CACACA_site3112] | 8.76 ± 0.43
TATATATGGAAAAGAGTCAAAAAGAAAAAAGAAAAA [CACACA_negctrl_site1374] | 8.61 ± 0.54
TATGAAATATTTATACACAGAACTTCATAATTTTCA [TGCATGCA_negctrl_site509] | 8.49 ± 0.37
TCTTTAACAAGTTAAACACACATACCTATATACATA [CACACA_site7237] | 8.79 ± 0.38
TGGTGATATACGAAATGTACGCAAATCACAAAATAA [XGTACX_site8836] | 8.84 ± 0.41
CGCGTATAACGAAATTGTACAAAAAAAATTAAACAT [XGTACX_site6813] | 9.01 ± 0.45
AAATAAAAATTAAAAAAATAGAAACGAATTGAATGC [TGCATGCA_negctrl_site365] | 8.79 ± 0.49
AATTAAACTTTGTTTTTGTTTTTTTTTTTTATATTT [CACACA_negctrl_site1316] | 8.45 ± 0.64
ATATATATAAATATATGTACATAAATATATTTGTAA [XGTACX_site6715] | 8.88 ± 0.44
TAATATATATAACATATACACACGTTCATATATATA [CACACA_site462] | 8.93 ± 0.32
TATTTGCAATATTATACACACATTAGATATTGCAAA [CACACA_site7565] | 8.85 ± 0.29
TACAAAATGTTATATCAATATAGATAAAAAAATGAA [XGTACX_negctrl_site285] | 8.69 ± 0.54
AAAAAAAAAAAAAAATGTACATATATAATATTTATA [XGTACX_site5117] | 8.54 ± 0.57
AACAAATTAATTCTAGTGCAGGACGTATTTGTGTAC [GTGCAC_site9907] | 8.88 ± 0.36
TCAACGATCACTCGGTGTACTATAAATGAGAGAATT [XGTACX_site1820] | 8.7 ± 0.44

Sequence | gcPBM binding intensity (ln)
AATTTTGAGATGTGGTGTACACAAAATTAGTTAGAC [XGTACX_site7033] | 9.09 ± 0.45
AACAATTTTTAAAGGTGTACAATATGTATATAAGAA [XGTACX_site254] | 8.83 ± 0.51
ATTAAATTAAAATAATGTACTTAATACTTTTGCTTA [XGTACX_site8404] | 8.46 ± 0.46
ATATATATATATAAAGGTACACATTTATTAAATATA [XGTACX_site7102] | 8.72 ± 0.38
TAATTTTTTTTTCTTGTACACACTATTTTATAATTT [CACACA_site4078] | 8.9 ± 0.45
ATCTATGATATATACACACACATGTATAAATAAATA [CACACA_site7012] | 9.32 ± 0.37
AATAGTATTCACAAAGTTTTATATAATAAATATAAA [GTGCAC_negctrl_site154] | 8.45 ± 0.52
ATAAACAATTAACAAACATGCAAATTTTAAATGTGT [TGCATGCA_site919] | 8.95 ± 0.39
ATTTATTTGTTTGTTTTTTTTACGATTTTTATTTTT [CACACA_negctrl_site1138] | 8.96 ± 0.47
CGTATTTATATAATTACACACCATATTTTAATTATT [CACACA_site5960] | 8.77 ± 0.38
TTTTTTTTTTTTTTTTGTACATATTTTTAAACTATA [XGTACX_site2897] | 8.42 ± 0.54
TTTTTTTTTTGATGTTGTACATATATATTATATATA [XGTACX_site6377] | 8.71 ± 0.36
AGATATATGGACGACTCACACATTTAAATTCATTCA [CACACA_site6047] | 8.87 ± 0.45
CTTTCATATGTTTTAACACACACGCATATATTATAT [CACACA_site8615] | 9.36 ± 0.33
TTTTTTTTTTTGATTTGTACACAAAAAAAATATATG [XGTACX_site4547] | 8.37 ± 0.52
ATATTTATATATATGTGTACATATAGAAACATAAAA [XGTACX_site4355] | 8.79 ± 0.42
CTTCTTATTTTCTAATGTACGTACAAATCATTTATA [XGTACX_site2176] | 8.74 ± 0.45
TGTCCTTATGGGCACACACACATATAAGAAATTTAA [CACACA_site3187] | 9.13 ± 0.49
AAAAACAAACTGTGCATGCACCAAAAAAAAAAAAAA | 8.98 ± 0.4
TAAACATACATATACACACACACACCCACACCCACA [CACACA_site492] | 10.3 ± 0.18
TTTTTTTTTTTAATTTGTACGAATCTTTTTATTTTA [XGTACX_site4516] | 8.7 ± 0.59
AGAAATGAAATATACACACATACATATATACATATA [CACACA_site4033] | 9.2 ± 0.34
